From publication PMC11269665 come the findings set out here.

Chains of the proteins cited; added tags and fusions are not shown. Lines headed by an entry give the natural chain unless they say otherwise; changes in a name come on top. Residues count along the entry.
UniProt Q9Y6K9: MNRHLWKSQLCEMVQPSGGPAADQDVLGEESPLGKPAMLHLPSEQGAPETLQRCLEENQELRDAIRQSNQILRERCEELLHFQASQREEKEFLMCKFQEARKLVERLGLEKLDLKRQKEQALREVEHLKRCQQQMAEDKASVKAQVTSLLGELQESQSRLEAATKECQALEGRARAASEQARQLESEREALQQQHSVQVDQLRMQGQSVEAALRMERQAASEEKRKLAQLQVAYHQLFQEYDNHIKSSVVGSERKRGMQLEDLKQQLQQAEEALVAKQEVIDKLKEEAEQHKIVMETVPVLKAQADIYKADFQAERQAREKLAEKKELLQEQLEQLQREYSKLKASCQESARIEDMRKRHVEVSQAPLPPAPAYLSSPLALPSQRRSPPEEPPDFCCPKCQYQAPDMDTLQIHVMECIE
GST-NEMO (120-419aa) fusion protein: residues 120-419 of Q9Y6K9
UniProt Q14532: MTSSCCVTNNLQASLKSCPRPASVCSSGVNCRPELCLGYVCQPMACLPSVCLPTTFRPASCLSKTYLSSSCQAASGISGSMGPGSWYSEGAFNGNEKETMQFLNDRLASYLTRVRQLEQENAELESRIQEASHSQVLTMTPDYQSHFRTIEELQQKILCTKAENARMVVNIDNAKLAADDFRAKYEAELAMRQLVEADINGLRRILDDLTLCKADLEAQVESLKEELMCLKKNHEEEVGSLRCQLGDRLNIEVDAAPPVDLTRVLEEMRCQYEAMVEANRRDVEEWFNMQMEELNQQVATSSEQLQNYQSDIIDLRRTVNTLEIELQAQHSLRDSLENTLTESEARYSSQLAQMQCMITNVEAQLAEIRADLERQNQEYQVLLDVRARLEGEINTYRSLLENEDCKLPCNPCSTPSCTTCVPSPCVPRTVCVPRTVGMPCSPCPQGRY
UniProt P25963: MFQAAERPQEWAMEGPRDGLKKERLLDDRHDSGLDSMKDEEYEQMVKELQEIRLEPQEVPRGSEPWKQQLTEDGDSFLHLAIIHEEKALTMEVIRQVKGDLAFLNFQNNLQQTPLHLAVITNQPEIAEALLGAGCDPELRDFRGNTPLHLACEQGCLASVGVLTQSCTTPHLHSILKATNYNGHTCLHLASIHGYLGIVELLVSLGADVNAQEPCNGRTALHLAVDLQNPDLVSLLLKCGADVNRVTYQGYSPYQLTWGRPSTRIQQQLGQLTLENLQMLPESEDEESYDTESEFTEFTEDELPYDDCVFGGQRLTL

Experiment [1] concerns the target NEMO (endogenous) (human (endogenous in primary keratinocytes, Ker-CT and skin)) (UniProt Q9Y6K9). Put plainly: co-IP; endogenous; anti-NEMO antibody and Protein A/G-Agarose, overnight at 4 °C, Nonidet P-40 lysates of primary keratinocytes and Ker-CT cells.
Experiment [2] has the same target. Put plainly: proximity ligation; Duolink PLA on fixed primary keratinocytes and Ker-CT cells; anti-NEMO and anti-KRT32; IgG as negative control.
Experiment [3] shares this target. The experiment can be described thus: proximity ligation; Duolink PLA on 3 μm paraffin sections of normal human adult skin; anti-NEMO and anti-KRT32.
The target is the same in experiment [4]. Put plainly: proximity ligation; Duolink PLA on fixed Ker-CT cells overexpressing Flag-tagged KRT32 wildtype or mutations; anti-Flag and anti-NEMO; foci per cell counted.
Experiment [5] deals with GST-NEMO (120-419aa) fusion protein (UniProt Q9Y6K9). The experiment can be described thus: pull-down; GST-NEMO (120-419aa) incubated with excess E. coli extracts containing His-KRT32 (wildtype or six mutants), His-IKKα and His-IKKβ; glutathione-Sepharose beads; Western blot; competition; only the target purified. Background: In western blotting, separated proteins are transferred to a membrane and probed.

In experiment [6] the target is GST-NEMO fusion protein (UniProt Q9Y6K9). The experiment can be described thus: pull-down; GST-NEMO fusion protein incubated with E. coli extracts containing WT or mutant His-KRT32; glutathione-agarose beads; Western blot; only the target purified.
In experiment [7] the target is Flag-tagged NEMO (UniProt Q9Y6K9). The experiment can be described thus: co-IP; HEK293T co-transfected with HA-KRT32 and Flag-NEMO for 24 h, Nonidet P-40 lysis buffer, agarose-conjugated anti-DYKDDDDK for 2 h, Western blot.
The target of experiment [8] is GST-KRT32 (human) (UniProt Q14532). The experiment can be described thus: pull-down; GST-KRT32 incubated 12 h with excess His-tagged NEMO, IKKα, IKKβ or IκBα, glutathione-Sepharose beads, Western blot with anti-GST and anti-His; both purified.
Experiment [9] shares this target. The experiment can be described thus: pull-down; GST-KRT32 (GST as control) incubated with lysates of primary keratinocytes and Ker-CT cells, glutathione-Sepharose beads, Western blot with anti-NEMO; only the target purified.

Results are given in words; binding and its absence hold for the method and conditions named. For some of these results: In cells and extracts the contact can be indirect. Some entries that bind do so weakly or less than the wild type.

“KRT32 (endogenous) (from UniProt Q14532 1-448)”: the binding entry in experiment [1], in experiment [2] and in [3] was “binds” in each case.

As to “Flag-tagged KRT32 wildtype (from UniProt Q14532 1-448)”, the binding entry in [4] was “binds”.

For the substance “His-KRT32 wild type (from UniProt Q14532 1-448)”, the binding entry in experiment [5] and in [6] was “binds” each time.

Regarding HA-KRT32 (from UniProt Q14532 1-448), the binding result in experiment [7] is reported as “binds”.

For the substance “His-tagged NEMO (from UniProt Q9Y6K9 1-419)”, the binding entry in experiment [8] is recorded as “binds”.

In the case of “His-tagged IκBα (from UniProt P25963 1-317)”, the binding entry in experiment [8] is listed as “no binding”.

With “NEMO (endogenous) (from UniProt Q9Y6K9 1-419)”, the binding result in [9] is recorded as “binds”.
